Data: article PMC4336329 (PLoS ONE, 2015)
Screen size: about 310,000 compounds; about 2,200 (0.71%) showed an effect of 50% or more. The effect is printed as a negative number. Some of the results follow.

target: human ether-à-go-go-related gene (hERG) potassium channel (human, UniProt Q12809); assay: primary screen, population patch clamp on CHO cells stably expressing hERG
Sequence (Q12809 whole entry, looked up): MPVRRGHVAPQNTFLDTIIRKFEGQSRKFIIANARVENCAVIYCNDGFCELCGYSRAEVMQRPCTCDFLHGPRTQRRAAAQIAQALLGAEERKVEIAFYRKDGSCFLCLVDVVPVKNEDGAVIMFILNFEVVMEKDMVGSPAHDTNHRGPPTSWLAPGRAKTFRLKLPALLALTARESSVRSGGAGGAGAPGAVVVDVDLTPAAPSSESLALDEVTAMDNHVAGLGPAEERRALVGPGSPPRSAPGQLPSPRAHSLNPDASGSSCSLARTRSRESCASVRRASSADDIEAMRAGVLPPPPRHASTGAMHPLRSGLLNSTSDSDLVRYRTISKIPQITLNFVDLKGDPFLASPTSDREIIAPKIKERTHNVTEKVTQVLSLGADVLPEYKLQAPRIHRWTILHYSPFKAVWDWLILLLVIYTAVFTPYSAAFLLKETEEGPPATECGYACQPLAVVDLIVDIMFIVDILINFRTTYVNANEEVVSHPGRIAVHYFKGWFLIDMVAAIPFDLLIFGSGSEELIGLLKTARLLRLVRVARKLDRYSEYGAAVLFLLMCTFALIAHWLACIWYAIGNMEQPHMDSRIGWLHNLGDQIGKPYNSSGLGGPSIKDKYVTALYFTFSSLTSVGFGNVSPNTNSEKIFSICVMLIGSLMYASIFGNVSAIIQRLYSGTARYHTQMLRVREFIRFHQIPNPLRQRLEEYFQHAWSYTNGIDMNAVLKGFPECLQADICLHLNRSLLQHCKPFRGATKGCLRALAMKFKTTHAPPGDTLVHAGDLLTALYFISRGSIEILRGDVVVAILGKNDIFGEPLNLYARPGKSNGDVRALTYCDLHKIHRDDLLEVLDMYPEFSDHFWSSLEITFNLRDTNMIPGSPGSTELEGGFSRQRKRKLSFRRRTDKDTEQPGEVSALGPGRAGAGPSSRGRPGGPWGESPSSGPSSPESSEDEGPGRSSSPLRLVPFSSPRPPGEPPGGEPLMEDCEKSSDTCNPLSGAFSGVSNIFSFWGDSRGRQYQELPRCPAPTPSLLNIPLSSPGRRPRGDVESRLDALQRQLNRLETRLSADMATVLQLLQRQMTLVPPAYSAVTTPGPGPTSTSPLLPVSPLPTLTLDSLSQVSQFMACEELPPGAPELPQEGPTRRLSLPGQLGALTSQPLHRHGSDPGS

Row | SMILES | hERG current change (%, negative = inhibition) at 1uM [%]
1 | CN(C)/C=C(\C#N)c1nc2ccccc2[nH]1 | 8.26
2 | COc1ccc(CCNS(=O)(=O)c2cccs2)cc1 | 12.6
3 | Cc1ccc(C2C(C(=O)c3cc4ccccc4o3)=C(O)C(=O)N2CCN2CCOCC2)o1 (stereo not drawn) | 8.24
4 | Cc1cc(-c2nnc(SCC(=O)c3ccc(F)cc3)o2)no1 | 11.4
5 | CN(C)c1cccc(C(=O)OCC(=O)Nc2ccccc2Cl)c1 | 13.7
6 | OC(CNCC1CCCCC1)COc1ccccc1 (stereo not drawn) | 6.17
7 | CCOc1ccc(-c2cc(C(=O)N/N=C/c3ccc(O)cc3)c3ccccc3n2)cc1 | 4.98
8 | CCn1c2ccccc2c2nnc(SCC(=O)Nc3ncccn3)nc21 | 1.79
9 | Cc1nn(Cc2ccccc2Cl)c(Cl)c1C(=O)OC(C(=O)NC(N)=O)C(C)C (stereo not drawn) | 6.86
10 | Cc1ccc(N2CCN(c3ccc(C)cc3)C2c2cccnc2)cc1 | 10.9
11 | CCOC(=O)c1c(C)n(-c2ccccc2)c2ccc(OCCN(C)C)cc12 | 7.59
12 | NC(=O)C1CCN(CC(=O)Nc2nccs2)CC1 | 12.8
13 | Cc1nc(Cc2ccc(OC(C)C)cc2)[nH]c(=O)c1CC(=O)O | 9.85
14 | O=C(Nc1cccnc1)c1cccc(S(=O)(=O)N2CCCCC2)c1 | 12.1
15 | CC(C)Cn1c(=O)c2c(nc3n2CCCN3Cc2ccccc2)n(C)c1=O | 6.6
16 | Brc1ccc(C2CC(c3ccccc3)=Nc3ccccc3N2)cc1 (stereo not drawn) | 10.3
17 | [O-]/[N+](=C\c1ccncc1)c1ccccc1 | 3.59
18 | Oc1c(Cl)c(Cl)c(Cl)c(Cl)c1Cl | 20.7
19 | CC(C)CNC(=O)c1c(F)c(F)c(F)c(F)c1F | 8.56
20 | Cn1cnnc1SCc1ccc(C(=O)N/N=C(\CCC(=O)O)c2ccc(C(C)(C)C)cc2)cc1 | 2.77
21 | O=C1CCc2cc(S(=O)(=O)N3CCC(C(=O)Nc4nccs4)CC3)ccc2N1 | 6.4
22 | CCN(C(C)=O)N(CC)c1nc(Cl)nc(NC(C)C)n1 | 4.24
23 | O=C(Nc1ccccc1)OCCOc1ccccc1Br | 20.3
24 | Cc1nn(-c2ccccc2)nc1C(=O)NN | 9.14

Row | SMILES | hERG current change (%, negative = inhibition) at 1uM [%]
25 | c1cc2ccc3ccc(CN4CCOCC4)c4ccc(c1)c2c34 | 3.58
26 | COc1cccc(C2CC(c3ccccc3)Nc3nc(N)nn32)c1 (stereo not drawn) | 2.21
27 | Cc1ccc(NC(=S)N2CCN(c3ccccn3)CC2)cc1C | 12.7
28 | COc1ccc(NC(=O)C2CC(=O)NC3=C2C(=O)CC(C)(C)C3)cc1 (stereo not drawn) | -1.62
29 | CCNC(=O)C(=O)N1CCC2(CC1)OCCN2S(=O)(=O)c1ccc(C)cc1 | 10.8
30 | Cc1cc(C)c2c(c1)/C(=N/Nc1ccc(S(N)(=O)=O)cc1[N+](=O)[O-])CCC2 | 8.52
31 | COc1cccc(/C=C2\Oc3cc(OCC(=O)N4CCCCC4)ccc3C2=O)c1OC | 12.8
32 | CC(=O)Nc1sc(C)c(C)c1C(=O)OCCOc1ccccc1 | 12.4
33 | O=C(Nc1cccc(Cl)c1)Nc1ccon1 | 6.02
34 | c1cn(CCCNC2=NCCCCC2)cn1 | 13.5
35 | COc1ccc(/C=N/Nc2cc(N3CCOCC3)ncn2)c(OC)c1 | 7.91
36 | O=C(Cc1csc(NC(=O)Nc2ccc(Cl)cc2)n1)NC1CCCC1 | 10.9
37 | c1nc(NC2CCCCCC2)c2[nH]cnc2n1 | 29.3
38 | COc1cccc(OCC(=O)N2CCN(C)CC2)c1 | 3.18
39 | Cc1cc(C(=O)N2CCC(C)CC2)on1 | 8.43
40 | c1ccc(CCn2nnc3ccccc32)cc1 | 2.45
41 | CCOc1ccc(C(=O)COC(=O)CNC(=O)C2CCCCC2)cc1 | 7.16
42 | COc1cc(C(=O)NNC(=O)c2cc(-c3ccccc3)n[nH]2)cc(OC)c1C | 11.6
43 | COc1ccc(N2C(=O)CC(SC(C)C)C2=O)cc1 (stereo not drawn) | 5.07
44 | Cc1ccc2c(c1)N(C(=O)CCC(=O)NCCCN1CCN(C)CC1)CC(C)O2 (stereo not drawn) | 8.82
45 | CCCNc1c(N)n(-c2ccccc2)c(=O)[nH]c1=O | 10.2
46 | O=C(NCc1ccccc1)c1ccc(C(=O)N(C2CCCCC2)C2CCCCC2)cc1 | -4.29
47 | CCn1c(=O)c(C(=O)CN2CC(C)OC(C)C2)c(N)n(Cc2ccccc2)c1=O (stereo not drawn) | -13.1
48 | CC(C)N(C(=S)Nc1cccc(S(=O)(=O)N(C)C)c1)c1ccccc1 | 10.1

Row | SMILES | hERG current change (%, negative = inhibition) at 1uM [%]
49 | NNC(=O)COc1ccc(-c2nccc(-c3ccc(F)cc3)n2)cc1 | 11.2
50 | C/C=C\C=C\C(=O)N1CC2(CC(c3cccc(NC(=O)COc4ccc(Cl)cc4)c3)=NO2)C[C@H]1C(N)=O (stereo partly drawn) | -23.9
51 | CCOC(=O)c1nc(Nc2cc(Cl)ccc2OC)c2ccccc2n1 | 9.12
52 | COCCN(C(=O)COC(=O)/C=C/c1ccco1)c1c(N)n(Cc2ccccc2)c(=O)[nH]c1=O | 11.5
53 | CCc1cc(C(=O)N(Cc2ccccc2)c2c(N)n(CCOC)c(=O)[nH]c2=O)sc1C | 3.53
54 | CSCCC(NC(=O)COc1ccccc1)C(=O)N(C)Cc1ccc(F)cc1 (stereo not drawn) | 3.61
55 | O=C(Nc1cccn2ncnc12)C(F)(F)F | 11.8
56 | CCOc1ccc(-n2c(SCC(=O)NC(C)CC)nc3n[nH]c(C)c3c2=N)cc1 (stereo not drawn) | 14
57 | Cn1c(SCc2ccccc2)nc2ccsc2c1=O | 11.6
58 | O=C(N/N=C/c1ccc(O)cc1)c1cncc(Br)c1 | 10.4
59 | CC(C)C(C(=O)Nc1ccc2c(c1)OCO2)N1C(=O)c2ccccc2C1=O (stereo not drawn) | 8.07
60 | CCc1nnc(NC(=O)CSc2ccc(-c3ccco3)nn2)s1 | 19.4
61 | CC1CCC2(CC1)NC(=O)N(CC(=O)Nc1sc3c(c1C(N)=O)CCC3)C2=O (stereo not drawn) | 5.2
62 | CS(=O)(=O)c1ccc2nc(NC(=O)CN3CCCCCC3)sc2c1.O=C(O)C(=O)O | 11.9
63 | COc1ccc(COC(=O)C2=C(C)NC(=O)NC2c2ccc(O)cc2)cc1 (stereo not drawn) | -4.72
64 | Cc1ccc(N2CCCC2=O)cc1S(=O)(=O)N1CCOCC1 | 9.48
65 | CCOc1ccc(NC(=O)CN(Cc2ccccc2)S(C)(=O)=O)cc1 | 7
66 | COc1ccc(-n2c(Cc3cccn3C)nnc2SCC(=O)Nc2nc(C)cs2)cc1 | 2.34
67 | CC(C)N(CCNC(=O)c1oc(=O)c2ccccc2c1-c1ccccc1)Cc1ccco1 | -32.5
68 | CCCc1nnc(SCC(=O)Nc2nc(C)cs2)n1CCOC | 16.2
69 | O=C(NCCN1CCOCC1)c1ccccc1[N+](=O)[O-] | 5.4
70 | Fc1ccccc1-n1cc(-c2ccccc2)[nH]c1=S | 10.2
71 | COc1ccc(S(=O)(=O)NCCCCCC(=O)O)cc1C(=O)O | 10.9
72 | CC1(C)C2([N+](=O)[O-])CN3CC1([N+](=O)[O-])CN(C2)C31CCCC1 | -1.67

Row | SMILES | hERG current change (%, negative = inhibition) at 1uM [%]
73 | CC(C)(C)c1ccc(C(=O)Nc2ccc(C(=O)N3CCCC3)cc2)cc1 | 0.261
74 | Clc1ccc(C#Cc2cccnc2)cc1 | 13.7
75 | Oc1ccccc1-c1cc(C(F)(F)C(F)F)[nH]n1 | 4.8
76 | Cc1c(OCC(=O)NC2CC(C)(C)NC(C)(C)C2)ccc2c3c(c(=O)oc12)CCC3 | 17.6
77 | COc1ccc(C2(NC(C)=O)CCN(C(=O)CCC(=O)O)CC2)cc1 | 12.6
78 | COc1ccc(C(=O)N/N=C/c2ccc(OC)c(COc3ccc(F)cc3F)c2)cc1 | 12.3
79 | COCc1nnc(NS(=O)(=O)c2ccc(Br)cc2)s1 | 9.94
80 | CCOc1ccc(NC(=S)N(CCc2ccncc2)C(C)C)cc1 | -31.5
81 | Cn1c(Cc2ccccc2)nnc1SCC(=O)NC1CC1 | 18.2
82 | Cc1ccc(C(=O)OCC(=O)c2c(N)n(C)c(=O)n(C)c2=O)cc1S(=O)(=O)N1CCOCC1 | -4.26
83 | CCC(=O)c1c(OCc2ccccc2)ccc2c(C)cc(=O)oc12 | 9.69
84 | C[C@H](NC(=O)c1nc[nH]c1C(=O)N[C@@H](C)c1ccccc1)c1ccccc1 | 11.7
85 | CCn1c(COc2ccccc2C)nc2ccccc21 | 4.87
86 | CCc1ccccc1NC(=O)c1cc(-c2ccc3c(c2)OCO3)on1 | 5.83
87 | Cc1nn(C)cc1CN(C)C(=O)c1cc(COc2ccc(F)cc2F)on1 | 10.8
88 | c1ccc(Nc2ccc(-n3ccnc3)nn2)cc1 | 7.53
89 | COc1ccccc1C(=O)NCC(=O)OC(C)C(=O)N1CCOCC1 (stereo not drawn) | 18.9
90 | Cn1c(O)c(N=NC(=O)CNC(=O)/C=C/c2ccccc2)c2ccccc21 | 3.74
91 | C=CCc1ccc(OCCOCCN(C)C)c(OC)c1.O=C(O)C(=O)O | -10.3
92 | COC(=O)[C@H](C(C)C)n1c(C)c(C(C)=O)c(C(C)=O)c1C | 8.5
93 | NC(=S)NNC(=O)Nc1ccc(Cl)c(Cl)c1 | 17.3
